The other results are listed elsewhere or left out.
B1: chr1:58468927:58468928:-_ENSMUSG00000026034_ENSMUST00000148330|mus_mus|mus_mus_mus_hu_False|18_58 (ssRNA)
RNA: GGGAGUUCUACAGUCCGACGAUCAAUUACUGAAAAAGAUGUUCAUUACCUUAGCUAUGUACUUAAUGAACCAAAUUAUCUAAAAAAAAUAAACAUGGCAAUAUAAAAAUGUUAAGAAAAUAACUUACUGUACAAAAUAACUUACAACAGAGGAUUGAGCAUCA
B2: chr10:85910540:85910541:+_ENSG00000165678_ENST00000372134|perfect_dup|motif|central (ssRNA)
RNA: GGGAGUUCUACAGUCCGACGAUCUUCUGCACGUUUGAUUACUUUCUGAGUAUCAUACAGAAGGAACAUGCUGAAAAGAACGGAUCCACCAUACAUUGCCACUGAGUACAGAGUGGCACCAGCCACAGAGGUAGGGGGAAGAAACAACAGAGGAUUGAGCAUCA
B3: 37302204_37304280_796_CDS_ENSG00000147905_ENST00000336755|human|control|control (ssRNA)
RNA: GGGAGUUCUACAGUCCGACGAUCACCACGUUUGUCACAAUUUCUACAGAUAAUGUUUUUGUUGGCUGAAUAGUACCGCUGGGUCCAUCUUCCAGGUGUUCGGUUAUUAGCUAUCUGGGCCUCAAUGUCUUUGUCACUGAUGGACAACAGAGGAUUGAGCAUCA
B4: chr17:74699132:74699133:-_ENSMUSG00000024067_ENSMUST00000112571|perfect_dup|motif|central (ssRNA)
RNA: GGGAGUUCUACAGUCCGACGAUCCCCAAGAAAUCAAUUUCGAUCUUCAAACUGCGCCUUGUUUUUUAAAAGAUAAGAUGCGGGGAACUCGAUGGGAUUUGGUGGUCUUUCCUUGGCAAGCACAGCAAGUCCCUGUAAUAAGAUCAACAGAGGAUUGAGCAUCA
B5: 7509219_7509339_2688_CDS_ENSMUSG00000031161_ENSMUST00000115642|mouse|control|control (ssRNA)
RNA: GGGAGUUCUACAGUCCGACGAUCAUGGACUUGGAUGACCUCACUGAUUGAAACCAGGGCUCCUGACUGUGGCGGUCGCAGCAAAGUAAGCUGGGGUGGUGGGUCUCCAAGGAGGGAAUGGGUGCAGGCAGCCAUAGACUCAGACAACAGAGGAUUGAGCAUCA
B6: chr10:18963012:18963013:+_ENSG00000165997_ENST00000377275|hu_mus|FALSE|FALSE (ssRNA)
RNA: GGGAGUUCUACAGUCCGACGAUCCCCUUCUCCUGUGAGCGCACAGCACGACUGGAUGUGCCACGGGUGGUCCUUGAUUGAACUUAGGGUGAGGUAUUUGGAGAUUUCAGCUGCUGUCAUGCACCCUUUCAUAUCCUGUUUAUUCAACAGAGGAUUGAGCAUCA
B7: chr1:157130520:157130521:-_ENSMUSG00000026469_ENSMUST00000027741|mus_mus|FALSE|FALSE (ssRNA)
RNA: GGGAGUUCUACAGUCCGACGAUCCGCGUUGAGGGGGGCCACAGAGAUGUCCCGCACGGCUCGGAAUUCACCACAGUUAUUUAGAUGCUCGUUCUCCAGACGGAAGAAGUUCCACACAAAUCGCCGGAAAACCUCAAGGGGGGCCAACAGAGGAUUGAGCAUCA
B8: chr1:231410971:231410972:+_ENSG00000116906_ENST00000366647|hu_hu|FALSE|FALSE (ssRNA)
RNA: GGGAGUUCUACAGUCCGACGAUCCAAAAGGUACUUGCAAAUUAUCUGAUAGCUUUCCACAAAAGGUUUAAAGAGUCCUACUAAAAAUUCUAACACAGUAUUUCCUUUCUCUGUAACUAGGAUGUCUUUCGUAGUCACUUGUAUCAACAGAGGAUUGAGCAUCA
B9: chr3:3214544:3214545:-_ENSG00000113851_ENST00000231948|hu_mus|FALSE|FALSE (ssRNA)
RNA: GGGAGUUCUACAGUCCGACGAUCCUUGAACCGCUGCCUUCCAAUUGCUUUCACUUUCACUACUUCAAUUCCAAACUCCUGCUCUUCUCGAUAGGCAUAGAUCUCUGCUGUUGUCCCAAACUGUGCUUCCCUUUCUUGCACAUUCAACAGAGGAUUGAGCAUCA
B10: chr12:48362563:48362564:+_ENSG00000134291_ENST00000256686|hu_hu|hu_hu_hu_mus_False|18_48 (ssRNA)
RNA: GGGAGUUCUACAGUCCGACGAUCUCCGUCAAGCCCUUCGAUAGACCCUUGCGGGGGAAACUGUAAUCACUUUGUAUGGGGAAGGAAAAAAAAAGCCAAAAACUUUCCAAAAAGCGGUUCAAAAAGCAGGCGGGAGGGGGAGGUCAACAGAGGAUUGAGCAUCA
B11: chr1:51737530:51737531:+_ENSG00000123091_ENST00000242719|perfect_dup|motif|central (ssRNA)
RNA: GGGAGUUCUACAGUCCGACGAUCACUGGUUUUCAAGCAUAGAGCCAGCCCCAACGAUAAUAAUACACUAUUUAAAAAGACCGGAGGCAAUGAAUUCCAUUUCCAAUGGAAAAAAAGAACUGUGCAAACAAGCUUAAAACUACUCAACAGAGGAUUGAGCAUCA
B12: chr7:108137184:108137185:-_ENSG00000135241_ENST00000257694|hu_hu|FALSE|FALSE (ssRNA)
RNA: GGGAGUUCUACAGUCCGACGAUCUCGAUAAAGUUCCUCACAUUCAUCCAAGGGCAUAUGAAACAACCCCAACAUGAAAGCUAAUAUGGCACCUGUGCUUACACCACAAAUGUAAUCAAAGAGCUGAUGAACUGGCUUCUGAGUCAACAGAGGAUUGAGCAUCA
B13: 180423776_180423896_799_CDS_ENSMUSG00000038914_ENSMUST00000103055|mouse|control|control (ssRNA)
RNA: GGGAGUUCUACAGUCCGACGAUCAGAAUCUUCCUCUCUGCGCUUCUUCCUCAGGCGAUUCUGACUGCCUCUCAGGGACCUCUCCACAGGUUCUUGCUCUCGCUUUCUCCGAAGGCGGUUCUGAAGUUCCUUCAACGUAAGGCCCAACAGAGGAUUGAGCAUCA
B14: chr17:56167648:56167649:+_ENSG00000264364_ENST00000579991|hu_hu|FALSE|FALSE (ssRNA)
RNA: GGGAGUUCUACAGUCCGACGAUCGAUAUCCCCAGAGGCUUUUAGCAUAAAAGCCCACUUAGAACUAACUGUGCCCCCUACCUACCCAUACACCCUAGAGAUUCCACACUGUCCUGCCCCCUCCCUCCCUUCUACCCCAAACCCCAACAGAGGAUUGAGCAUCA
B15: chr7:65705844:65705845:+_ENSG00000169902_ENST00000304842|hu_mus|hu_hu_hu_mus_False|28_68 (ssRNA)
RNA: GGGAGUUCUACAGUCCGACGAUCAAACGGAUCUUUGUUACAUAAAUAAGGUGCCGGCUCCCCAUGUUUAACGAUAACCUCCAGAAGGAAGGCUUGCAUGGCAGAAUCCAGCACUUCAUCUGUGACACCCGCCUCAUCCAAGCGCAACAGAGGAUUGAGCAUCA
B16: 71693611_71693731_815_CDS_ENSG00000132463_ENST00000545193|human|control|control (ssRNA)
RNA: GGGAGUUCUACAGUCCGACGAUCCUCAUUUACUUCAUGUUCUUCAAAGACCAUUUCUGGCUCAGUUAUAUACUUAGCAGUAGGAAAAGAUGCGAUUUUCUUUCCCUUAUAAGAACCGACAUGUGUUCGAACUUCAUUCCUUCUCAACAGAGGAUUGAGCAUCA
B17: chr4:131761308:131761309:-_ENSMUSG00000040025_ENSMUST00000102570|mus_hu|motif|central (ssRNA)
RNA: GGGAGUUCUACAGUCCGACGAUCAGCUGACUGUCCAUCAAUCAUGGCUCCACCUAAGGAGCUAGGUGCAUAAGCAUAAUUGCGGCGGUAUCCAGAGCUCUGAGUAGACUGUCCCUGAGAACUGUUAUUUCCCCAUGCUGAGAACAACAGAGGAUUGAGCAUCA
B18: chr8:92086081:92086082:+_ENSG00000155100_ENST00000285420|hu_hu|motif|central (ssRNA)
RNA: GGGAGUUCUACAGUCCGACGAUCUAUCCGAGGUGGCUGAUUCUCAAGCACCAAGUUUGAAAUGUUAACAGCAACAGAAUCGGUCUUAUUCUCCUUAGUAGUCAGCUUCAAUUGCUCCAGUUCCUCUCUAUGUUUCUGUUCCAUCAACAGAGGAUUGAGCAUCA
B19: chr16:30615004:30615005:-_ENSG00000156853_ENST00000287461|hu_hu|FALSE|FALSE (ssRNA)
RNA: GGGAGUUCUACAGUCCGACGAUCUGCUACUUAACCUGAAAACUUGGGGGCAAAGUGGUUGUGAUUAUCUGAAGGGCUGCUAUGUAGAUGAAGUAUUAAACAUGUCGUAGGCAAGGUUUAGAGGAGAAUGUGGUACUUAACCUUCAACAGAGGAUUGAGCAUCA
B20: chr7:140404665:140404666:+_ENSG00000090266_ENST00000247866|hu_hu|hu_hu_hu_mus_False|78_88 (ssRNA)
RNA: GGGAGUUCUACAGUCCGACGAUCUGCUCCUACUCGUCCAGAGAGUUUACACCUUCAGUCUUCAUCAUCAGGAGGGAUUCCCAGUUCUUCAUCUGUCCACUGUGAAGGAUCUGGAUAUGAAAAGUGACCCAGCACAGCAUCCGACAACAGAGGAUUGAGCAUCA
B21: chr1:60041781:60041782:+_ENSMUSG00000041040_ENSMUST00000036540|mus_hu|mus_mus_mus_hu_False|38_88 (ssRNA)
RNA: GGGAGUUCUACAGUCCGACGAUCAAGUUUACAAUAGUAAAGUAAAUCAAAUUUAGUCAAAUUUUCUUUUAUUUUCCUUCACAAAAGAAAAUCUUUAGAUCUCAGUUCUAGUCUUGGACAUAGUGAAAGCUAUAAAUUCUGACUCAACAGAGGAUUGAGCAUCA
B22: chr3:119450855:119450856:-_ENSMUSG00000028134_ENSMUST00000029780|mus_hu|mus_mus_mus_hu_False|8_78 (ssRNA)
RNA: GGGAGUUCUACAGUCCGACGAUCUGUGGUGCCACUAAGAGGAGUAUUUGCUGUCUGGACCGCUGUCACAGCUUGAAGAACUGCCUGAGCACGUUGGUUUAAUGUAUUAUCUGUCUUUAGUUCUUUGUGAUUGGAGUACUGGAUCAACAGAGGAUUGAGCAUCA

target: T1, UNK ZnF1-3 (human, UniProt Q9C0B0 31-174); assay: nsRBNS (natural sequence RNA bind-n-seq); RBNS binding buffer (assumed for nsRBNS): 25 mM Tris pH 7.5, 150 mM KCl, 3 mM MgCl2, 0.01% Triton X-100, 500 ug/ml BSA, 20 U/ml SUPERase-In, 4 C; UNK is unkempt and MSI1 is Musashi-1; names of the RNAs are library labels; protein concentration not given here; high values mean tight binding
T1 sequence: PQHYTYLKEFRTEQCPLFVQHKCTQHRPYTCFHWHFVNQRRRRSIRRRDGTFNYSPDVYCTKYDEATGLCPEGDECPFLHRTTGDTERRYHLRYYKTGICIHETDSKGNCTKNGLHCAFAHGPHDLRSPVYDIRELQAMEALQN

Binder | binding signal [enrichment R]
B1 | 0.613
B2 | 1.57
B3 | 0.593
B4 | 0.979
B5 | 1.56
B6 | 0.658
B7 | 1.4
B8 | 0.638
B9 | 0.543
B10 | 2.27
B11 | 1.38
B12 | 1.11
B13 | 0.563
B14 | 2.77
B15 | 0.275
B16 | 0.583
B17 | 1.07
B18 | 1.13
B19 | 2
B20 | 1.19
B21 | 0.4
B22 | 0.875
